Target: T1, GST tagged ANK domain of Shank3 (residues 148-345) (mouse, UniProt Q4ACU6 148-345)
T1 sequence (looked up): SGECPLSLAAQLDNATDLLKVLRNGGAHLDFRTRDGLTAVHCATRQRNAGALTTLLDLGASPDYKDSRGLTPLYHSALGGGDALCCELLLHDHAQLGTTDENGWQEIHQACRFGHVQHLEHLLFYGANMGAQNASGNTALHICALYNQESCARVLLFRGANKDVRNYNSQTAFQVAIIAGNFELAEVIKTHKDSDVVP
Experiment: pull-down

B1: His6 tagged SOAR domain of STIM1 ([…]) (domain or fragment)
chain: not shown
binding result: binds

— paper PMC10755590 (Redox Biology, 2023)
